Measurements reported in patent US20220289815A1 (KITE PHARMA, published 2022).

T1: IL-15Rbeta/gamma (UniProt P14784 27-551; P31785 23-369, limits assumed)
T1 sequence (looked up) 1: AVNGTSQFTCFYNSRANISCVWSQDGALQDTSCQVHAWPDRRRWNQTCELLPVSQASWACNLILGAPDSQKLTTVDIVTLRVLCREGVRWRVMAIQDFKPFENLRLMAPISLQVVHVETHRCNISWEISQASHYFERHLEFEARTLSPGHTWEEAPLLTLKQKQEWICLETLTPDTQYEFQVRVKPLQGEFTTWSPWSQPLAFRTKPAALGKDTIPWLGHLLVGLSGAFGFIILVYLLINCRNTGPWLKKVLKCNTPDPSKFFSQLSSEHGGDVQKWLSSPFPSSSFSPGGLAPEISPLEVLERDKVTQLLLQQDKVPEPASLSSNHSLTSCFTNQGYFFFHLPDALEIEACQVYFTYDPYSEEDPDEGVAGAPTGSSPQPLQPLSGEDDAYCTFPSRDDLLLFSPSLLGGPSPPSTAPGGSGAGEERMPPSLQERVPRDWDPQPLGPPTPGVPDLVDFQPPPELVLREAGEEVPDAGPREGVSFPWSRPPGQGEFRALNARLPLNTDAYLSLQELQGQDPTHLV
T1 sequence (looked up) 2: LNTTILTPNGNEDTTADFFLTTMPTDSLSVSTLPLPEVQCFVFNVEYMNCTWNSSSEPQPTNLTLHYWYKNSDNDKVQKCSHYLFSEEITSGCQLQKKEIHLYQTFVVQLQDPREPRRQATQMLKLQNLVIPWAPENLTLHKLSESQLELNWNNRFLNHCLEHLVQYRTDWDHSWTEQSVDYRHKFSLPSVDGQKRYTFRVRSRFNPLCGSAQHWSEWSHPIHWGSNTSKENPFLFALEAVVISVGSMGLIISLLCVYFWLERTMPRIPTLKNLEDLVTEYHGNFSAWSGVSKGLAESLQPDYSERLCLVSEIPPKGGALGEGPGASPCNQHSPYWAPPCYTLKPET

B1: membrane-bound IL-15-IL-15Rα sushi domain chimeric receptor monomer (FAS transmembrane domain, N-terminal Myc tag) (other)
chain: EQKLISEEDLAGS[no letters for about 120 residues]SGGGSGGGGSGGGGSGGGGSGGGSITCPPPMSVEHADIWVKSYSLYSRERYICNSGFKRKAGTSSLTECVLNKATNVAHWTTPSLKCIRDGGGGSGGGGSRSNLGWLCLLLLPIPLIVWVKRKEVQKT
B2: membrane-bound IL-15-IL-15Rα sushi domain chimeric receptor dimer (IL-7 CPT mutein transmembrane domain, N-terminal Myc tag) (other)
chain: EQKLISEEDLAGS[no letters for about 120 residues]SGGGSGGGGSGGGGSGGGGSGGGSITCPPPMSVEHADIWVKSYSLYSRERYICNSGFKRKAGTSSLTECVLNKATNVAHWTTPSLKCIRDGGGGSGGGGSPILLTCPTISILSFFSVALLVILACVLW

Molecular target: T1, IL-15Rbeta/gamma
Test: cell-based or functional assay

Binder	increase in pSTAT5 signaling
B1	> 7 fold
B2	> 7 fold
